{
  "source": "PubChem BioAssay AID624417",
  "about": "(National Center for Advancing Translational Sciences (NCATS), 2012)",
  "note": "The whole screen tested about 410,000 compounds, of which about 6,400 (1.6%) were called active. The inconclusive results got no clear call from the source; some entries with a clear call stand among them for comparison. Calls come from the whole dose curve; as a rule, active = well fitted inhibition curve with a large enough effect; inconclusive = small, poorly fitted or top-dose-only effect; inactive = no such curve, though single readings can be large or run the other way. No potency is given beside an inconclusive call; the fits are too rough.",
  "data": [
    {"biological_target": "Glucagon-like peptide 1 receptor (Homo sapiens) (UniProt P43220)", "sequence (P43220 whole entry, looked up)": "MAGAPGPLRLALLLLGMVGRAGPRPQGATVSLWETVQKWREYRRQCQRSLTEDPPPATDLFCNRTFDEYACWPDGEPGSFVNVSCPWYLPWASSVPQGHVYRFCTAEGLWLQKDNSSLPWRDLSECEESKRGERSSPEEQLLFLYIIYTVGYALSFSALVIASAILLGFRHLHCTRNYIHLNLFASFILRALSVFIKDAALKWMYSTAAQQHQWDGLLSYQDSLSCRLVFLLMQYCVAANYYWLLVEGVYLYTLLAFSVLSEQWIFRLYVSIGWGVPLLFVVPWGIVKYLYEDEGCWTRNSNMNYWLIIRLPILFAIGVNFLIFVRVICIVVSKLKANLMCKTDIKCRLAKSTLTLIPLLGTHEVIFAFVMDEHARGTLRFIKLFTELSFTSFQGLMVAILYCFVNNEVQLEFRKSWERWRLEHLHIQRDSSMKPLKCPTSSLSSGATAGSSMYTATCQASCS", "assay": "qHTS of GLP-1 Receptor Inverse Agonists (Inhibition Mode); note: nearly all actives have a fitted effect of over 55% in size; note: potency is the fitted concentration of half-maximal effect; tags give direction and shape of the fitted curve; for activity change, negative = inhibition: % is set by controls: 0 for no effect and ±100 for the full control effect", "conditions": "HEK293 GLP-1R CRE-luciferase, luminescence, 24 h, GLP-1R form is constitutively active; activity change, negative = inhibition: at 38.3 µM (top of the series) unless noted", "in_short": "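Assay principle: reduced luminescence from a cAMP-responsive reporter in HEK293 cells co-expressing a constitutively active GLP-1R. Conditions: 24 hr compound incubation, 37 deg C, 5% CO2.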", "values": [
      {"molecule": "N=c1n(Cc2ccc(Cl)cc2)c2ccccc2n1CC(O)c1ccco1", "note": "(configuration not stated)", "Potency": "inconclusive [inhibitor, partial curve, poor fit]"},
      {"molecule": "Cc1ccc2nc(NNC(=O)c3ccc4c(c3)OCCO4)sc2c1", "Potency": "inconclusive [inhibitor, single point]"},
      {"molecule": "CCCCN1CC(=O)N2[C@H]3c4cc(OC)ccc4OC[C@@H]3[C@H](C(=O)OCC)[C@]2(C)C1=O", "activity change, negative = inhibition": "inactive: 8.82%"},
      {"molecule": "O=S(=O)(c1ccc(F)cc1)N1CCN(C(=S)NC2CCCC2)CC1", "Potency": "inconclusive [inhibitor, partial curve, poor fit]"},
      {"molecule": "CCc1c(C)c2cc3c(c(C)c2oc1=O)OCN(CCc1ccccc1F)C3", "activity change, negative = inhibition": "inactive: -1.66%"},
      {"molecule": "COc1cccc(C2c3[nH]c4ccccc4c3C[C@H]3C(=O)N(c4ccccc4C(=O)N4CCC[C@H]4C(=O)O)C(=O)N23)c1", "note": "(some centres not stated)", "activity change, negative = inhibition": "inactive: -4.55%"},
      {"molecule": "Cc1cc(NC(=O)C(C)SCC(=O)Nc2ccc(SC(F)F)cc2)no1", "note": "(configuration not stated)", "Potency": "inconclusive [inhibitor, single point]"},
      {"molecule": "COc1ccc(OC)c(NS(=O)(=O)c2ccc(NC(=O)C3COc4ccccc4O3)cc2)c1", "note": "(configuration not stated)", "Potency": "inconclusive [inhibitor, single point]"},
      {"molecule": "COC(CNC(=O)c1c[nH]c2ccc(S(=O)(=O)N3CCC4(CC3)OCCO4)cc2c1=O)OC", "activity change, negative = inhibition": "inactive: 16.1%"},
      {"molecule": "Cc1ccc(N=c2c([N+](=O)[O-])nn(-c3ccc4c(c3)OCCO4)n2O)cc1F", "Potency": "inconclusive [inhibitor, full curve, poor fit]"},
      {"molecule": "CN1C(=O)/C(=C/c2ccccc2Cl)Sc2ccc(C(=O)N3CCCC3)cc21", "Potency": "inconclusive [inhibitor, single point]"},
      {"molecule": "CC(=O)c1c(C)[nH]c(C(=O)N(CCc2ccccc2)Cc2ccccc2)c1C", "Potency": "inconclusive [inhibitor, partial curve, poor fit]"},
      {"molecule": "Cc1ccc(-n2ncc(C(=O)NCc3ccco3)c2C2CCN(C(=O)OC(C)(C)C)CC2)cc1C", "Potency": "inconclusive [inhibitor, single point]"},
      {"molecule": "CCc1ccccc1N(C)C(=O)C1CCCN(c2ncnc3c2nc2n3CCCCC2)C1", "note": "(configuration not stated)", "activity change, negative = inhibition": "inactive: 0.474%"},
      {"molecule": "C=CCN1C=CC(=O)[C@@H](OC(=O)Nc2ccc(Br)cc2)[C@H]1c1ccccc1Br", "Potency": "inconclusive [inhibitor, single point]"},
      {"molecule": "Cn1c(=O)c2cc(NC(=O)Cc3ccccc3F)ccc2n1-c1ccc(C(C)(C)C)cc1", "Potency": "inconclusive [inhibitor, partial curve, poor fit]"},
      {"molecule": "CCOC(=O)C1(Cc2ccc(O)cc2)NC(c2ccccc2F)C2C(=O)N(C)C(=O)C21", "note": "(configuration not stated)", "Potency": "inconclusive [inhibitor, full curve, poor fit]"}
    ]}
  ]
}
